Experimental data from PubChem BioAssay (Tox21).
“And” between values parts separate entries of the source, which are not always exact repeats. Equal values may be shown once. This list was built around the results that the source calls inconclusive (neither active nor inactive); the mix of calls is not that of the screen. For part of these data: Where the call is inconclusive, the potency comes from a doubtful curve fit. Some compounds were tested as several samples or in several runs, with calls that do not always agree. The source made the active and inactive calls. Unless noted, the call rests on the fitted dose curve; in most records, active means well fitted curve in the direction sought with a large enough effect in the repeat runs; inconclusive means weak or mixed curves; inactive means no such curve, though single readings can be large; an effect the other way counts as inactive or inconclusive.

How the values were obtained:
[1] = qHTS assay to identify small molecule agonists of H2AX - cell viability counter screen (AID 1224847; calls by dose curve; further: nearly all actives have a fitted effect of over 30% in size); details: CHO-K1 viability, CellTiter-Glo luminescence, 3 h; series mostly up to 154 µM
Outline: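 For this counter screen, overnight-attached CHO-K1 cells received test compounds (15 concentrations, 0.76% DMSO final); 3 hr later at 37C, CellTiter-Glo reagent was added and luminescence recorded after 30 min at room temperature.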

[2] = qHTS RealTime-Glo MT Cell Viability Assay in HEK293 cells - 32 hour (AID 1224868); details: RealTime-Glo luminescence; series mostly up to 76.8 µM; further: nearly all actives have a fitted effect of over 50% in size
Outline: (§1)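 Viability tracked continuously by luminescence as live cells reduce a prosubstrate for NanoLuc; HEK293 cells preincubated 5 h, compound-treated at 37 C, and read at 0, 8, 16, 24, 32 and 40 h.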

[3] = qHTS RealTime-Glo MT Cell Viability Assay in HepG2 cells - 40 hour (AID 1224870); details: RealTime-Glo luminescence; series mostly up to 76.8 µM; further: nearly all actives have a fitted effect of over 50% in size
Outline: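 Real-time viability: cells seeded at 600 per well together with NanoLuc and cell-permeant prosubstrate, compounds added after 5 h incubation. Luminescence tracked at 0, 8, 16, 24, 32 and 40 h of exposure.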

[4] = qHTS RealTime-Glo MT Cell Viability Assay in HEK293 cells - 16 hour (AID 1224872); details: RealTime-Glo luminescence; series mostly up to 76.8 µM; further: nearly all actives have a fitted effect of over 50% in size
Outline: as §1

[5] = qHTS RealTime-Glo MT Cell Viability Assay in HEK293 cells - 0 hour (AID 1224880); details: RealTime-Glo luminescence; series mostly up to 76.8 µM; further: nearly all actives have a fitted effect of over 45% in size
Outline: (§2)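 qHTS format; HEK293 cells with NanoLuc/prosubstrate reagent, 37 C/5% CO2 for 5 h pre-dosing; compounds 23 nL in DMSO; luminescence at each time point reflects viable cells.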

[6] = qHTS RealTime-Glo MT Cell Viability Assay in HEK293 cells - 40 hour (AID 1224874); details: RealTime-Glo luminescence; max response: stronger effect = lower value; further: nearly all actives have a fitted effect of over 50% in size
Outline: as §2

[7] = A CellTox Green Cytotoxicity Assay to monitor cytotoxicity in HepG2 cells - 16 hour (AID 1224876); details: CellTox Green fluorescence; series mostly up to 76.8 µM; further: nearly all actives have a fitted effect of over 45% in size
Outline: (§3)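 Continuous culture of HepG2 cells with a membrane-impermeant DNA dye; rising fluorescence marks dead cells. Compound exposure lasted up to 40 h at 37 C, with reads every 8 h from 0 h.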

[8] = A CellTox Green Cytotoxicity Assay to monitor cytotoxicity in HepG2 cells - 24 hour (AID 1224878); details: CellTox Green fluorescence; series mostly up to 76.8 µM; further: nearly all actives have a fitted effect of over 45% in size
Outline: as §3

[9] = qHTS RealTime-Glo MT Cell Viability Assay in HepG2 cells - 24 hour (AID 1224867); details: RealTime-Glo luminescence; series mostly up to 76.8 µM; further: nearly all actives have a fitted effect of over 50% in size
Outline: (§4)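 Viability was tracked continuously by NanoLuc luminescence from prosubstrate reduced by living HepG2 cells, at successive time points over 40 h of compound exposure. Cells with reagent were preincubated 5 h at 37 °C before compound addition.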

[10] = qHTS RealTime-Glo MT Cell Viability Assay in HepG2 cells - 32 hour (AID 1224877); details: RealTime-Glo luminescence; series mostly up to 76.8 µM; further: nearly all actives have a fitted effect of over 55% in size
Outline: as §4

[11] = qHTS assay to identify small molecule antagonists of the estrogen related receptor (ERR) signaling pathway from Tox21 library (AID 1224848); details: ERR reporter cell line, luciferase antagonist mode, 18 h; series mostly up to 92.4 µM; further: nearly all actives have a fitted effect of over 50% in size
Outline: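 Reading was by luminescence 30 min after ONE-Glo addition. Before that, ERR cells at 2,000 per well had rested 6 h at 37 C/5% CO2 and then received pin-tooled compounds in DMSO for 18 h at 37 C.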

[12] = A CellTox Green Cytotoxicity Assay to monitor cytotoxicity in HEK293 cells - 24 hour (AID 1224875); details: CellTox Green fluorescence; series mostly up to 76.8 µM; further: nearly all actives have a fitted effect of over 45% in size
Outline: (§5)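 Each value comes from one timepoint of a single continuous run in which HEK293 cells with CellTox Green were exposed to compound for up to 40 h at 37 C, dye fluorescence rising with cell death.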

[13] = A CellTox Green Cytotoxicity Assay to monitor cytotoxicity in HEK293 cells - 40 hour (AID 1224871); details: CellTox Green fluorescence; series mostly up to 76.8 µM; further: nearly all actives have a fitted effect of over 45% in size
Outline: as §5

[14] = A CellTox Green Cytotoxicity Assay to monitor cytotoxicity in HEK293 cells - 32 hour (AID 1224881); details: CellTox Green fluorescence; series mostly up to 76.8 µM; further: nearly all actives have a fitted effect of over 40% in size
Outline: as §5
Potency means the concentration at half of the fitted maximal effect; tags describe the fitted curve by direction and shape.

What does the source list for `CC(=O)O[C@]1(C(C)=O)CC[C@H]2[C@@H]3C=C(Cl)C4=CC(=O)CC[C@]4(C)[C@H]3CC[C@@]21C`?
Potency [1]: active: 101 µM and inactive; Potency [2]: active: 19.5 µM and inconclusive: 10.7 µM [cytotoxic, partial curve]; Potency [3]: inactive; Potency [4]: active: 21.8 µM and inconclusive: 9.52 µM [cytotoxic, partial curve]; Potency [5]: active: 2.18 µM and active: 1.69 µM

For `O=C(OCc1ccccc1)c1ccc(O)cc1`, which Potency [1] is on record?
The Potency was inconclusive: 56.6 µM [cytotoxic, partial curve].

And the Potency [2]?
The Potency was inconclusive: 54.9 µM [cytotoxic, partial curve].

What about the Potency [4] of the same molecule?
The Potency was inconclusive: 61.6 µM [cytotoxic, single point].

What about the Potency [6] of the same molecule?
Its Potency is inconclusive: 54.9 µM [cytotoxic, partial curve, poor fit].

What about the Potency [7] of the same molecule?
Its Potency is inconclusive: 49 µM [activator, partial curve, poor fit].

And the Potency [8]?
Its Potency is inconclusive: 49 µM [activator, single point].

And the Potency [5]?
Its Potency is inconclusive: 54.9 µM [falling, single point].

Which results are given for `O=C(CCCN1CC=C(n2c(=O)[nH]c3ccccc32)CC1)c1ccc(F)cc1`?
Potency [1]: inconclusive: 49.2 µM [cytotoxic, partial curve]; Potency [2]: inconclusive: 19 µM [cytotoxic, partial curve]; Potency [8]: inconclusive: 2.39 µM [activator, single point]

Which Potency [1] does the source give for `COc1ccccc1N1CCN(CC(O)COc2cccc3ccccc23)CC1` (configuration not stated) here?
Its Potency is active: 49.2 µM.

And the Potency [9]?
The Potency was inconclusive: 13.4 µM [falling, partial curve].

And the Potency [2]?
The Potency was active: 26.8 µM.

What about the Potency [3] of the same molecule?
Its Potency is inconclusive: 26.8 µM [falling, partial curve, poor fit].

And the Potency [4]?
Its Potency is inconclusive: 26.8 µM [cytotoxic, partial curve].

And the Potency [6]?
The Potency was inconclusive: 26.8 µM [cytotoxic, partial curve].

And the Potency [7]?
Its Potency is inconclusive: 30.1 µM [activator, single point].

And the Potency [10]?
Its Potency is inconclusive: 21.3 µM [cytotoxic, partial curve, poor fit].

And the Potency [8]?
Its Potency is inconclusive: 26.8 µM [activator, single point].

What does the source list for `CC[C@]1(O)C[C@@H]2CN(CCc3c([nH]c4ccccc34)[C@@](C(=O)OC)(c3cc4c(cc3OC)N(C)[C@H]3[C@@](O)(C(=O)OC)[C@H](OC(C)=O)[C@]5(CC)C=CCN6CC[C@]43[C@@H]65)C2)C1`?
Potency [1]: inconclusive: 43.8 µM [cytotoxic, partial curve, poor fit]; Potency [11]: inconclusive: 5.96 µM [inhibitor, full curve, poor fit] and active: 26.6 µM; Potency [4]: inconclusive: 0.0756 µM [cytotoxic, full curve]; Potency [12]: inconclusive: 15.1 µM [activator, single point]; Potency [10]: inconclusive: 134 nM [cytotoxic, full curve] and inactive

For `CC(=O)OCC[N+](C)(C)C`, which Potency [1] is on record?
The Potency was “inactive”.

And the Potency [9]?
The Potency was “inactive”.

Which Potency [1] does the source give for `N#CCCCC(C#N)CCC#N` (configuration not stated) here?
Its Potency is “inactive”.

And the Potency [2]?
Its Potency is inconclusive: 49 µM [rising, partial curve, poor fit].

With `CN1CCc2cccc3c2[C@H]1Cc1ccc(O)c(O)c1-3` as the molecule, how does the Potency [11] read?
Its Potency is active: 24.6 µM and active: 18.1 µM and inconclusive: 33.5 µM [inhibitor].

What about the Potency [2] of the same molecule?
Its Potency is active: 15.7 µM and active: 8.17 µM and active: 23.9 µM.

And the Potency [3]?
Its Potency is inconclusive: 55.5 µM [falling, single point] and inconclusive: 26.8 µM [falling, single point].

What about the Potency [13] of the same molecule?
The Potency was active: 55.5 µM and inconclusive: 20.5 µM [activator, single point].

And the Potency [4]?
Its Potency is active: 15.7 µM and active: 10.3 µM and inconclusive: 26.8 µM [cytotoxic, single point].

What about the Potency [12] of the same molecule?
Its Potency is inconclusive: 44.1 µM [activator, single point].

And the Potency [10]?
Its Potency is inconclusive: 23.9 µM [cytotoxic, single point].

What about the Potency [14] of the same molecule?
The Potency was inconclusive: 23 µM [activator, single point].

Which Potency [11] does the source give for `CC(=O)CC(=O)Nc1ccc2[nH]c(=O)[nH]c2c1` here?
The Potency was “inactive”.
